# Results taken from the supplement of paper PMC10369915.
# The list shows a part of the results. Rule as the data show it: active = 3.2 or more and inactive = the rest. Most of these values are background signal.
# Legend:
# Assay in all cases: enrichment score (SH2-bound / input frequency) (ratio); bacterial display of known human phosphotyrosine sites (pTyr-Var adds point mutants) read by sequencing; higher = stronger binding; tyrosines were phosphorylated by kinases first
# Conditions in all cases: peptide library: Human pTyr
# SHP2 C-SH2 domain E139D = biological target: SHP2 C-SH2 domain E139D
# [1] = biological target: SHP2 C-SH2 domain wild-type
# SHP2 N-SH2 domain L43F = biological target: SHP2 N-SH2 domain L43F
# SHP2 N-SH2 domain T42A = biological target: SHP2 N-SH2 domain T42A
# SHP2 N-SH2 domain T52S = biological target: SHP2 N-SH2 domain T52S
# [2] = biological target: SHP2 N-SH2 domain wild-type
# 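Also: displayed peptides selected on beads carrying the immobilized SH2 domain, with library peptides lacking any tyrosine serving as negative controls.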
Binder,enrichment score (SHP2 C-SH2 domain E139D),enrichment score [1],enrichment score (SHP2 N-SH2 domain L43F),enrichment score (SHP2 N-SH2 domain T42A),enrichment score (SHP2 N-SH2 domain T52S),enrichment score [2]
AGDSLSYYHSPADSF [FOS_HUMAN_30],inactive: 0.646,inactive: 0.553,inactive: 0.531,inactive: 0.453,inactive: 0.582,inactive: 0.682
KGDKQVEYLDLDLDS [GAB1_HUMAN_627],inactive: 1.32,inactive: 0.997,active: 3.85,active: 5.17,inactive: 2.31,inactive: 1.42
GFQYEGTYKWVNPHK [G6PD_HUMAN_507],inactive: 1.07,inactive: 1.1,inactive: 0.964,inactive: 1.1,inactive: 1.1,inactive: 1.18
EPGSEGDYMVLPRRT [AGRB2_HUMAN_1351],inactive: 1.1,inactive: 0.59,inactive: 0.543,inactive: 0.76,inactive: 0.655,inactive: 0.729
ADASSIQYRKAGLPR [GBRB2_HUMAN_441_YA],inactive: 0.887,inactive: 0.711,inactive: 0.867,inactive: 0.886,inactive: 1.02,inactive: 0.926
TEADGELYVFNTPSG [GAB1_HUMAN_285],inactive: 0.748,inactive: 0.663,inactive: 0.768,inactive: 0.722,inactive: 0.752,inactive: 0.778
NQSSGYRYGTDPTPQ [FYN_HUMAN_30],inactive: 0.582,inactive: 0.504,inactive: 0.645,inactive: 0.562,inactive: 0.565,inactive: 0.518
SSSSDEEYIYMNKVT [AFAP1L2_HUMAN_54],inactive: 0.76,inactive: 0.636,inactive: 0.694,inactive: 0.654,inactive: 0.633,inactive: 0.471
SAPVTAFYRGCMTLE [GAS6_HUMAN_683],inactive: 1.22,inactive: 1.25,inactive: 1.27,inactive: 1.34,inactive: 1.45,inactive: 1.97
SHDSEENYVPMNPNL [GAB1_HUMAN_589],inactive: 0.697,inactive: 0.545,inactive: 0.543,inactive: 0.474,inactive: 0.655,inactive: 0.607
TDPTPQHYPSFGVTS [FYN_HUMAN_39],inactive: 0.565,inactive: 0.543,inactive: 0.394,inactive: 0.6,inactive: 0.477,inactive: 1.1
FREVRNEYGSRIGGN [FUBP1_HUMAN_268],inactive: 0.853,inactive: 0.727,inactive: 0.653,inactive: 0.633,inactive: 1.06,inactive: 0.8
VSECPHTYQNRRPFS [FLT3_HUMAN_969],inactive: 1.31,inactive: 1.42,inactive: 1.4,inactive: 1.65,inactive: 1.42,inactive: 1.28
DLTAGNRYKNVKLPD [G6PD_HUMAN_428_YA],inactive: 0.876,inactive: 0.621,inactive: 0.646,inactive: 0.617,inactive: 0.771,inactive: 0.79
TSDEKVDYVQVDKEK [GAB2_HUMAN_643],inactive: 1.2,inactive: 1.1,inactive: 1.22,inactive: 1.04,inactive: 1.19,inactive: 1.4
FSGFNADYEASSSRC [FOS_HUMAN_10],inactive: 1.1,inactive: 0.91,inactive: 0.911,inactive: 0.862,inactive: 0.949,inactive: 0.792
SEELDENYVPMNPNS [GAB1_HUMAN_447],inactive: 0.89,inactive: 0.685,inactive: 0.829,inactive: 0.928,inactive: 0.819,inactive: 0.971
CRNEEGKYGAVLRSA [FYB_HUMAN_755_YA],inactive: 1.27,inactive: 1.13,inactive: 0.947,inactive: 0.853,inactive: 1.11,inactive: 1.02

Binder,enrichment score (SHP2 C-SH2 domain E139D),enrichment score [1],enrichment score (SHP2 N-SH2 domain L43F),enrichment score (SHP2 N-SH2 domain T42A),enrichment score (SHP2 N-SH2 domain T52S),enrichment score [2]
DIADGCIYDNDGGGG [FYB_HUMAN_780],inactive: 0.93,inactive: 0.955,inactive: 0.739,inactive: 0.858,inactive: 0.86,inactive: 1.16
VAFFPNGYAFTTGSD [GBB2_HUMAN_239],inactive: 0.813,inactive: 0.915,inactive: 0.745,inactive: 0.818,inactive: 0.826,inactive: 0.721
EGDEVEVYSRANDQE [FXR1_HUMAN_68],inactive: 1.35,inactive: 0.9,inactive: 1.16,inactive: 1.66,inactive: 1.23,inactive: 1.26
GNSAEEAYENVPCKA [GCSAM_HUMAN_107_YA],inactive: 0.98,inactive: 0.716,inactive: 0.873,inactive: 0.848,inactive: 0.869,inactive: 1.05
ARSPEDEYELLMPHR [GCSAM_HUMAN_148],inactive: 0.716,inactive: 0.701,inactive: 0.763,inactive: 0.97,inactive: 0.791,inactive: 0.617
EPIQEANYVPMTPGT [GAB1_HUMAN_472],inactive: 0.544,inactive: 0.53,inactive: 0.531,inactive: 0.561,inactive: 0.55,inactive: 0.642
SLNQSSGYRYGTDPT [FYN_HUMAN_28],inactive: 0.627,inactive: 0.509,inactive: 0.516,inactive: 0.492,inactive: 0.513,inactive: 0.528
KVDNEDIYESRHEIK [FRK_HUMAN_387],inactive: 0.975,inactive: 0.985,inactive: 0.996,inactive: 0.798,inactive: 1.16,inactive: 0.958
EGDEVEVYSRANEQE [FXR2_HUMAN_78],inactive: 1.07,inactive: 1.12,inactive: 0.948,inactive: 1.33,inactive: 1.16,inactive: 1.22
ASADLMSYCEEHARS [GBG12_HUMAN_42],inactive: 0.821,inactive: 0.897,inactive: 0.633,inactive: 0.729,inactive: 0.791,inactive: 0.925
KSTGSVDYLALDFQP [GAB2_HUMAN_614],inactive: 0.697,inactive: 0.778,active: 7.51,active: 9.36,active: 4.42,inactive: 1.24
ASDTDSSYCIPTAGM [GAB1_HUMAN_373],inactive: 0.739,inactive: 0.574,inactive: 0.816,inactive: 0.799,inactive: 0.74,inactive: 0.723
EDLADKPYTFEDYDV [FXN_HUMAN_118],inactive: 1.35,inactive: 1.2,inactive: 1.39,inactive: 1.32,inactive: 1.73,inactive: 1.56
VHNDIFRYQDEVFGG [G3BP1_HUMAN_133],inactive: 0.717,inactive: 0.726,inactive: 0.677,inactive: 0.617,inactive: 0.752,inactive: 0.953
AGDSLSAYHSPADSF [FOS_HUMAN_30_YA],inactive: 0.469,inactive: 0.42,inactive: 0.512,inactive: 0.474,inactive: 0.506,inactive: 0.441
FFQQQMIYDSPPSRA [GAB1_HUMAN_242],inactive: 0.858,inactive: 0.75,inactive: 0.511,inactive: 0.664,inactive: 0.63,inactive: 0.794
DPFIDLNYMVAMFQA [G3P_HUMAN_42_YA],inactive: 1.49,inactive: 1.6,inactive: 1.44,inactive: 1.53,inactive: 1.78,inactive: 1.83
VADERVDYVVVDQQK [GAB1_HUMAN_659],inactive: 0.809,inactive: 1.08,inactive: 0.722,inactive: 0.747,inactive: 0.603,inactive: 0.626
